Assay results reported in PubChem BioAssay AID624296 (National Center for Advancing Translational Sciences (NCATS), 2012).
Screen size: about 350,000 compounds; about 9,900 (2.8%) were called active. Inconclusive results, whose numbers are uncertain, are shown with a selection of clear calls. The call rests on the fitted dose curve; in most records, active means well fitted activation curve with a large enough effect; inconclusive means small, poorly fitted or top-dose-only effect; inactive means no such curve, though single readings can be large or run the other way. No potency is given beside an inconclusive call; the fits are too rough.

assay: A quantitative high throughput screen for small molecules that induce DNA re-replication in MCF 10a normal breast cells.; further: nearly all actives have a fitted effect of over 50% in size; on activity, positive = re-replication: % of control where 0% means no effect; details: MCF 10A DNA re-replication, Hoechst nuclear intensity, 48 h; activity, positive = re-replication: at 46.1 µM (top of the series)
Potency means the concentration at half of the fitted maximal effect; tags describe the fitted curve by direction and shape.

Structure (SMILES)	activity, positive = re-replication	Potency
Nc1cc(N)nc(SCc2ccccc2)n1	inactive: -1.2%	
Cc1cccc(NC(=O)/C(C#N)=C/c2ccccc2Cl)n1		inconclusive [activator, partial curve, poor fit]
CCC(=O)N1CCN(c2ccc(OC)cc2[N+](=O)[O-])CC1	inactive: 0.39%	
C=CCn1c(=O)c(C(=O)Nc2ccccc2C)c(O)c2ccccc21		active: 18.4 µM
O=C(Cn1cc(COc2c(F)c(F)cc(F)c2F)nn1)c1ccc(O)cc1	inactive: -30.7%	
c1ccc(C2c3[nH]c4ccccc4c3CCN2Cc2cccn2-c2cccnc2)nc1 (stereo not drawn)		inconclusive [activator, single point]
O=C(CCNS(=O)(=O)c1ccc(Br)cc1)NC1CCC(O)CC1 (stereo not drawn)	inactive: 0.0595%	
CCN(CC)CCNC(=O)c1ccc(NC(=O)c2ccc(Cl)c(S(=O)(=O)N3CCCCCC3)c2)cc1		inconclusive [activator, single point]
COc1ccc(C(C(=O)NC2CCCC2)N(Cc2ccccc2)C(=O)c2nsc(Cl)c2Cl)cc1 (stereo not drawn)	inactive: -0.463%	
CC[C@]12c3[nH]c4ccccc4c3CCN1C(=O)C(CC(=O)NC/C=C(\C)CCC=C(C)C)C[C@@H]2C(=O)N1CCN(C(=O)c2ccco2)CC1 (stereo partly drawn)		inconclusive [activator, single point]
CC(=O)N1CCN(CC(O)COc2ccc(OCc3ccccc3)cc2)CC1 (stereo not drawn)	inactive: 11%	
Cc1[nH]c2ccccc2c(=O)c1CN1CCCCC1		inconclusive [activator, partial curve, poor fit]
CCN(C[C@H]1N[C@@](CC)(C(=O)OC)[C@H]2C(=O)N(Cc3ccccc3)C(=O)[C@@H]12)C(=O)Nc1ccc(C(F)(F)F)cc1	inactive: 1.02%	
CSc1ncccc1C(=O)N1CCN(S(=O)(=O)c2ccc3c(c2)OCCO3)CC1	inactive: 1.75%	
CCCNC(=O)c1csc(Nc2cccc3ccccc23)n1	inactive: 0.865%	
N#C/C(=C/c1ccc(-c2ccc(S(=O)(=O)N3CCOCC3)cc2)o1)C(=O)NC1CC1		inconclusive [activator, single point]
C=C1C(=O)O[C@@H]2C[C@@H](C)[C@@H]3C=CC(=O)[C@@]3(C)[C@@H](OC(C)=O)[C@H]12		active: 1.16 µM
Cc1ccc(S(=O)(=O)N2CCOCC2)cc1C(=O)NC1=NCCS1	inactive: 0.8%	
CN(C(=O)CSc1nncn1C)C1CCCN(Cc2ccccc2F)C1 (stereo not drawn)	inactive: -14.3%	
COCCNC(=S)N/N=C/c1ccc2c(c1)OCCO2	inactive: 3.17%	
O=C(Nc1ccccc1F)Nc1cccc2ccc(O)cc12	inactive: 2.9%	
COCCCn1c(C)nnc1SCC(=O)Nc1cccc(C)c1	inactive: 8.07%	
COc1ccccc1CNCC(O)(c1ccc(Cl)cc1)c1ccc(Cl)cc1		inconclusive [activator, single point]
COc1ccc(CSc2cccc3cccnc23)cc1[N+](=O)[O-]		inconclusive [activator, partial curve, poor fit]
Cc1cc(C(=O)Nc2nncs2)oc1C		inconclusive [activator, partial curve, poor fit]

Structure (SMILES)	activity, positive = re-replication	Potency
CCCCC1=NN(C(=O)c2ccco2)C(O)(C(F)(F)F)C1 (stereo not drawn)		inconclusive [activator, single point]
COc1ccc(C2CC(c3ccc(F)cc3)=NN2c2ccccc2)cc1OC (stereo not drawn)		active: 16.4 µM
O=C(NCC1CCCCC1)c1cc(S(=O)(=O)N2CCCCC2)ccc1Cl		inconclusive [activator, partial curve, poor fit]
CCc1ccc(Nc2c([N+](=O)[O-])c(=O)oc3ccccc23)cc1		inconclusive [activator, single point]
O=C(O)Cc1sc(Nc2ccc(Cl)cc2)nc1-c1cccs1		inconclusive [activator, single point]
NS(=O)(=O)c1ccc(CCn2c(=S)[nH]c3ccccc3c2=O)cc1		inconclusive [activator, full curve, poor fit]
CC1CCCCC1NC(=O)CNC(=O)c1ccco1 (stereo not drawn)	inconclusive: 70.5% [activator]	
Cc1cc(C)c2c(c1)NC(c1cc3c(cc1Br)OCO3)C1CC=CC21 (stereo not drawn)		inconclusive [activator, single point]
COc1cc(/C=N/N=C(N)N)ccc1OCc1ccc(Cl)cc1		inconclusive [activator, single point]
COc1ccc(OC)c(Nc2c3ccccc3nc3ccccc23)c1		active: 20.6 µM
CC(C)n1cnc2c(NCc3ccccc3)cc(OCC3CCN(C)CC3)cc21		inconclusive [activator, full curve, poor fit]
Oc1ccc2ccccc2c1/C=N/c1nccs1		inconclusive [activator, partial curve, poor fit]
CCOC(=O)Cc1csc(NC(=S)NC(=O)c2cc(OC)c(OC)c(OC)c2)n1	inactive: 5.79%	
CC(C)C[C@H]1CN([C@@H](Cc2ccc(O)cc2)CN2CCC[C@@H]2CN2C(=O)C(=O)NC[C@@H]2Cc2ccccc2)C(=O)C(=O)N1CC1CCCCCC1		inconclusive [activator, partial curve, poor fit]
O=C(Nc1cccc([N+](=O)[O-])c1)Nc1cccc([N+](=O)[O-])c1	inactive: 23%	
Cc1cc(Cl)ccc1Oc1ncnc2oc(-c3ccccc3)cc12		inconclusive [activator, partial curve, poor fit]
CC(=O)c1c(C)[nH]c(C(=O)COC(=O)COc2ccccc2)c1C	inactive: -4.26%	
COC(=O)[C@@]12CCCCN1[C@H](c1ccc(-c3ccc(F)cc3)cc1)[C@H]1C(=O)N(C)C(=O)[C@H]12		inconclusive [activator, single point]
O=C1OCCN1C(=O)[C@H]1[C@H](c2ccc(Cl)cc2)C(c2ccc(F)cc2)=NN1c1ccccc1		active: 3.66 µM
CCN(c1ccccc1)S(=O)(=O)c1ccc(C(=O)NCC(=O)Nc2ccc(F)c(F)c2F)cc1		inconclusive [activator, single point]
CCOC(=O)C1=C(C)N=C2SC(C(=O)OC)=CC(=O)N2C1c1ccc(F)cc1 (stereo not drawn)	inactive: -2.94%	
CS(=O)(=O)c1ccc(C(=O)OCC(=O)N2CCCc3ccccc32)cc1	inactive: 0.865%	
CCCn1c(NCc2cc(OC)ccc2OC)nc2ccccc21	inactive: 1.36%	
O=C(O)c1ccccc1/C=N/NC(=S)NC1CCCCC1		inconclusive [activator, partial curve, poor fit]
CC(CSc1nc2ccccc2s1)Cn1c(N2CCCC2)nc2c1c(=O)[nH]c(=O)n2C (stereo not drawn)	inactive: 15.4%	

Structure (SMILES)	activity, positive = re-replication	Potency
CCOC(=O)/C(=N\Nc1ccccc1Cl)N1CC(C)OC(C)C1 (stereo not drawn)		inconclusive [activator, single point]
O=C(C(Sc1ccccc1)c1ccccc1)N1CCOCC1 (stereo not drawn)	inactive: -5.81%	
CCOC(=O)N1CCN(C(=O)c2ccc(Cl)c(S(=O)(=O)N3CCCC3)c2)CC1	inactive: -3.9%	
Cc1ccc2[nH]c(=O)c(CN(CC3CCCO3)C(=S)Nc3ccccc3)cc2c1 (stereo not drawn)		inconclusive [activator, single point]
CC1CCC(C(C)C)C(OC(=O)COC(=O)c2ccc(N)cc2)C1 (stereo not drawn)		active: 23.1 µM
COC(=O)CC1(c2cccc3ccccc23)C(=O)c2ccccc2C1=O		inconclusive [activator, single point]
CCN(CC)c1ccc(C(=O)NNC(=O)CNC(=O)c2ccco2)cc1	inactive: -0.148%	
CCN1/C(=C\c2ccc3ccccc3[n+]2CC)Sc2cc(C)ccc21		inconclusive [activator, partial curve, poor fit]
CN(C(=O)C1CCN(S(=O)(=O)c2ccccc2[N+](=O)[O-])CC1)C1CCCCC1		inconclusive [activator, single point]
COc1cc2sc(-c3ccccc3OC)c(-c3ccc(OCCN4CCCCC4)cc3)c2cc1OC		inconclusive [activator, single point]
COc1cccc(N/N=C/c2cccc(Br)c2O)c1		inconclusive [activator, single point]
O=C(CSc1nnc(-c2ccccc2Cl)n1Cc1ccco1)Nc1ccc2c(c1)OCCO2	inactive: 5.05%	
Cc1ccc(-n2cccc2/C=C2/C(=N)N3C(=NC2=O)SN=C3S(C)(=O)=O)cc1Cl		inconclusive [activator, single point]
CN1CCN(Cc2cn(C)nc2-c2ccccc2F)CC1c1ccccc1 (stereo not drawn)	inactive: 1.42%	
COc1ccccc1CNS(=O)(=O)c1ccc(Cl)s1	inactive: -1.44%	
Cc1cccc(C2=NN(c3ccc(Br)cc3)[C@@H](C(=O)N3CCOC3=O)[C@@H]2C)c1		active: 5.17 µM
Cc1ccc(C)c(N2CCN(CCN3CCCCC3)CC2)c1		inconclusive [activator, partial curve, poor fit]
COc1ccccc1N1CCN(c2nc(N)c(C#N)c(CC#N)c2C#N)CC1		inconclusive [activator, single point]
O=S(=O)(Nc1cccc2ccccc12)N1CCCC1		active: 8.2 µM
COc1ccc(C(CNc2nc(-c3cccnc3)nc3ccccc23)N(C)C)cc1 (stereo not drawn)		inconclusive [activator, single point]
O=C(Nc1ccc2c(c1)CCC2)C1CCCN(c2ncccn2)C1 (stereo not drawn)	inactive: 4.26%	
COc1ccccc1/C=C1\SC(=S)N(CCC(=O)N2CCN(C)CC2)C1=O	inactive: 12.5%	
CCc1ccc(C(=O)NCc2ccc(Cl)cc2Cl)cc1	inactive: -1.25%	
